For part of its entries the source gives two or more results. The list is limited to them. There may be further records. Values given together read as repeated measurements (runs, samples, wells or individuals).

The target of the assay is sm1.2 (manufactured by Upstate Biotechnology), commercially available anti-hIGF-I antibody. The assay is described as follows: competitive ELISA: free hIGF-I varied, against binding of sm1.2 (4.0 µg/mL) to plate-bound methylated BSA-hIGF-I.

With “human insulin-like growth factor-I (from UniProt P05019 49-118) (ligand)”, the half-inhibitory concentration (IC50) was 1.2 µg/mL and 156 nM.

In general, IC50 refers to the point on the concentration scale where inhibition reaches its midpoint.

These data come from patent publication US20060263362A1.
